The supplement of paper PMC10185492
The list shows a part of the results. Read counts after selection give these values, which scatter widely.

The substances below were run on SARS-CoV-2 3CLpro (nsp5) (assay: substrate phage enrichment score (protease-eluted vs HEPES control, +1 offset) (ratio); higher = better cleaved substrate). Conditions: selection round: 3; protease elution time: 0.5 h.
Experimental: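 Random heptapeptide substrate phage display (M13 pIII fusion, heptapeptide between an N-terminal biotinylated AviTag GLNDIFEAQKIEWHE and pIII; phages immobilised on streptavidin) eluted by cleavage with 50 nM protease in 20 mM HEPES at 37 °C. Selected phages were NGS sequenced, and the enrichment score is (reads in protease sample + 1)/(reads in HEPES blank-selection control + 1).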

Substance | substrate phage enrichment score
SSGRHNR | 1.47
VHSSAYG | 1.56
CNPLTRR | 2.79
ACGKTKV | 3.4
EGTRCNN | 10.8
PLSTLHN | > 26
RDVSSKG | > 25
SAEPLRN | 0.421
AHFQGGS | 5.33
PHASCSL | > 31
TATIPQI | > 30
MGTKLTP | > 21
KDRDVMS | > 29
HCQPGLM | > 23
TSGEKSC | 3.14
SKTEWPE | 0.714
RSFERLQ | > 47
YPDGSFK | 2.38
CAPKSAR | 3.6
SAAAQHQ | 1.12
LSSRLQS | > 62
ESVELQA | > 33
TPGGEFN | 6.33
SDKARTT | > 26

Substance | substrate phage enrichment score
VPSSCLQ | > 229
YKTRCQN | 3.4
ELRSCLC | 1.42
EDVWVCR | 1.08
RLHDLRR | 2.14
STVQPNS | 6.09
KESVICG | 7.77
NYGNLKQ | 17.2
LRFFRRR | > 21
DESTAIH | > 21
TTKLQAS | > 37
IAGEVRS | 0.15
AWPKLGC | > 30
WRSQDMK | 0.467
DRAAHHH | 0.355
HSELSFQ | 10.5
NSSTTPR | 0.722
RNTRIPT | > 22
STEMANP | 2.25
IRPHIII | 1.43
RTLCTLQ | > 21
WRPHIII | 1.71
CSDAHKP | 0.8
AALKHWQ | > 25

Substance | substrate phage enrichment score
TTAHHHH | 0.667
WKKTHLS | > 22
HCITVTR | 6.12
LLNLPND | 6.33
MSAAHHH | 1.23
EHPVWQE | 1.36
TPGAMKS | > 22
SRPHFQG | > 23
DTAAHHH | 0.688
SAAILQS | > 24
TPAAHHH | 1.19
TQGSVSH | > 27
ESRQGVC | > 30
RKCILQS | 14
MSGITHG | 1
AHCTQLQ | > 156
DREEKMR | > 32
QVIPSVK | > 78
DPQRKFL | 6.38
NASAHHH | 2.71
HCGDAAA | 4.5
STGEYRQ | 0.222
TWNYRPS | > 22
TAILQSV | > 32

Substance | substrate phage enrichment score
TAGVTLH | 30.5
TPVSGCQ | > 26
LTRLCAE | 11
GAATLQA | > 26
TNAAHHH | 1.08
AMTCTLQ | > 38
KAQLMSN | > 31
WTRPKCE | 0.0714
THNQIMK | 3.22
GQAAKLQ | > 33
LLPLEAR | 14.7
KCQSLDW | 3.78
TREIYSE | 1.85
SESELPD | 0.96
RLMSSLQ | > 25
PKAAHHH | 1.07
LGQPDLW | 14
PPVAEQH | > 47
ASDSVLQ | > 26
SIGQTHS | > 31
PCAKSQE | 0.867
SWQVGNS | 14.3
MHVPNSP | 3
CATPDCA | > 22

Substance | substrate phage enrichment score
VRPQKAP | > 31
VKTSWPP | > 53
RVAAHHH | 1.68
VAWPQLQ | > 29
SRQLYSP | > 26
ASAAHHH | 1.5
KHCGSNG | 10.5
KHQLPVR | 15.5
RRDAIPV | 1.38
SDALTSK | 3.29
QQCTNGW | 8.75
GSATRLQ | > 25
SRAFNRE | > 27
REGHIRL | 1.5
RQGTLSP | 3.08
QYMPVPR | 10
PAAHHHH | 1.15
NAAVRRP | > 45
FTSPPRQ | 3.33
AERLSCY | 2.58
IVRPHII | 0.96
